Among all 310,000 compounds or so, about 14,000 (4.5%) showed an effect of 50% or more. Effects have a minus sign here. The list shows a part of the results.

86 compounds from article PMC4336329 (PLoS ONE, 2015) can be followed below.
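Note: peak tail current of the secondary pulse compared with the same well before compound.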

human ether-à-go-go-related gene (hERG) potassium channel, sequence (Q12809 whole entry, looked up): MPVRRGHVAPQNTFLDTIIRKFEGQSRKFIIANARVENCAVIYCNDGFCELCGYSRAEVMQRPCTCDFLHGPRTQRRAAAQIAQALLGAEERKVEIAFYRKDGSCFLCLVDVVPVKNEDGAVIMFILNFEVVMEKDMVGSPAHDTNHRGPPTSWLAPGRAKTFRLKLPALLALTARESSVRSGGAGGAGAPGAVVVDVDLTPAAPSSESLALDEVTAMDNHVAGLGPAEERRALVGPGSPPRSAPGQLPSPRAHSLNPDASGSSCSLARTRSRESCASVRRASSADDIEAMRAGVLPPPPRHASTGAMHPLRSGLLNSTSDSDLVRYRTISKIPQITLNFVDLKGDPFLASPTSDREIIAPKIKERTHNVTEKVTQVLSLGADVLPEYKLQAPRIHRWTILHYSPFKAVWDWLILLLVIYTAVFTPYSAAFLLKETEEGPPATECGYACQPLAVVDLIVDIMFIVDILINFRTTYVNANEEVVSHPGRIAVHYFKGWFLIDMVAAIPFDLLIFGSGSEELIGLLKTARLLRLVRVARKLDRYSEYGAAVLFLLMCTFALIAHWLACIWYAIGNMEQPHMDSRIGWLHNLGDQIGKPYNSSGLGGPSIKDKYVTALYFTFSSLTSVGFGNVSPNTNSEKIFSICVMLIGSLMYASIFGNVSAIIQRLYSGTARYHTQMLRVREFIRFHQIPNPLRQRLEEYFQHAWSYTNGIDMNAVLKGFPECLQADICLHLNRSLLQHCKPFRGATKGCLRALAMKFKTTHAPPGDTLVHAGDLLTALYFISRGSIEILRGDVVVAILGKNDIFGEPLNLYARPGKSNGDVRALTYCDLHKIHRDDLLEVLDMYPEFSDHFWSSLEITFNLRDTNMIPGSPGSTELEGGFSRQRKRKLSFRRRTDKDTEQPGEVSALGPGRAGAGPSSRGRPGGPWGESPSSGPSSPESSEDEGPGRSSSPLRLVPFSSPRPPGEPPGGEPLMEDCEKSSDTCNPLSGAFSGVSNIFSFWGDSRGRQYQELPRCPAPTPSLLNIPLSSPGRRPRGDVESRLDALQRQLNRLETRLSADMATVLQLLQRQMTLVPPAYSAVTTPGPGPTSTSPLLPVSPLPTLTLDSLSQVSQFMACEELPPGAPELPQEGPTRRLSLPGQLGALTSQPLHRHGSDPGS

The assay addresses human ether-à-go-go-related gene (hERG) potassium channel (human, UniProt Q12809). Nature of the assay: primary screen, population patch clamp on CHO cells stably expressing hERG.
With `COc1ccc(O)c(/C=N/Nc2nc(Nc3ccccc3)nc(-n3nc(C)cc3C)n2)c1`, the “hERG current change (%, negative = inhibition) at 10uM” value is given as 0.0873%.

With `CCOC(=O)c1c(NC(=O)CSc2nnc(-c3ccc(Cl)cc3)o2)sc2c1CCC2`, the “hERG current change (%, negative = inhibition) at 10uM” value is on record as -0.885%. With `O=C(Nc1ccn(Cc2ccccc2)n1)c1n[nH]c([N+](=O)[O-])c1Cl` the figure was -10.6%; with `CCc1nnc(NC(=O)CS(=O)(=O)c2ccccc2)s1`, 1.86%. As for `Cc1cc(C)c[n+](CC(=O)c2ccccc2)c1.[Br-]`, the “hERG current change (%, negative = inhibition) at 10uM” value is reported as 22.8%. As to `O=C(C[n+]1ccc(Cc2ccccc2)cc1)Nc1ccc([N+](=O)[O-])cc1Cl.[Cl-]`, the “hERG current change (%, negative = inhibition) at 10uM” value was -24.8%. As for `O=C(c1ccc(F)cc1)C1CCN(Cc2cn[nH]c2-c2ccccc2)CC1`, the figure is -78.8%; as for `COc1ccc(CC(=O)Oc2ccc(F)c(F)c2)cc1S(=O)(=O)N1CCOCC1`, -43.8%; as for `CN(C)c1ccc(C(=O)N2CCN(c3cc(C(F)(F)F)nc4ccccc34)CC2)cc1`, -26.4%. With `CC1(C)CC(=O)c2cnn(-c3nc4ccccc4[nH]3)c2C1` the figure was 2.29%. Regarding `O=C1c2cccnc2C(=O)N1Cc1ccccc1`, the “hERG current change (%, negative = inhibition) at 10uM” value worked out at 3.86%. As for `CCNc1nc(NC(C)C)nc(NS(=O)(=O)c2ccc(C)cc2)n1`, the figure is 12.8%; as for `C=CC[n+]1c(C)csc1Nc1ccc(C)cc1.[Br-]`, 0.033%. Take `O=C(COC(=O)c1ccc(S(=O)(=O)N2CCCC2)cc1)Nc1ccc(Cl)cc1`: the “hERG current change (%, negative = inhibition) at 10uM” value was 4.84%. With `O=C(Nc1ccc2nc(-c3ccccn3)c(-c3ccccn3)nc2c1)N1CCOCC1` the figure was 5.82%; with `O=C(CCNC(=O)c1ccco1)Nc1ccc(Cl)cc1`, 5.56%. Turning to `O=C(Cn1c(=O)oc2ccccc21)Nc1n[nH]c(=S)s1`, the “hERG current change (%, negative = inhibition) at 10uM” value is listed as 29.6%. With `Cc1cc(-c2nnc(CCC(=O)NC(C)c3ccccc3Cl)o2)no1` (centres unmarked), the “hERG current change (%, negative = inhibition) at 10uM” value is reported as 0.643%. With `CS(=O)(=O)c1ccc(Cl)c(NC(=O)COC(=O)Cc2c[nH]c3ccccc23)c1` the figure was -7.78%; with `CCCn1c(SCC(=O)Nc2cc(S(=O)(=O)N3CCOCC3)ccc2Cl)n[nH]c1=O`, -1.03%; with `Cc1cc2c(cc(C(=O)OC(C(=O)NC3CCCCC3)C(C)C)n2C)o1` (centres unmarked), 5.89%. For `CCn1c(SCC(=O)Nc2cc(C)nn2-c2ccccc2)nnc1-c1cccs1`, the “hERG current change (%, negative = inhibition) at 10uM” value was -12.9%.

With `COc1cccc(NC(=O)CN(C)C(=O)c2ccc(-c3ccc(Cl)cc3)o2)c1`, the “hERG current change (%, negative = inhibition) at 10uM” value is on record as -10.4%. For `N=C1C(c2nc(-c3ccc(F)cc3)cs2)=C(O)CN1CCCN1CCOCC1`, the “hERG current change (%, negative = inhibition) at 10uM” value is -39.5%. For `COc1cc(Br)cc(C2C3=C(CCCC3=O)N(c3ccc(F)cc3)C3=C2C(=O)CCC3)c1O`, the “hERG current change (%, negative = inhibition) at 10uM” value is on record as -17.1%. For `Cc1cc(C(=O)CSc2nnnn2-c2ccccc2)c(C)n1CCc1ccccc1`, the “hERG current change (%, negative = inhibition) at 10uM” value worked out at 9.18%. `CC1(C)C(=O)OC(C(=O)c2ccccc2)C2(CCCCC2)C1=O` (centres unmarked): the “hERG current change (%, negative = inhibition) at 10uM” value is -2.19%. In the case of `CCN(CC)c1ccc(/C=C/c2ccc3ccc(OC)cc3[n+]2CC)cc1.[I-]`, the “hERG current change (%, negative = inhibition) at 10uM” value is -82%. With `CCOC(=O)C1=Nc2ccccc2/C1=C\c1c(O)n(C)c(=O)n(C)c1=O` the figure was 7.8%. As to `COc1cccc(N2C(=NC(=O)C3CCCO3)SC3CS(=O)(=O)CC32)c1` (centres unmarked), the “hERG current change (%, negative = inhibition) at 10uM” value stood at 14.9%. As for `Cc1ccc(/C=N/NC(=O)c2ccco2)cc1`, the “hERG current change (%, negative = inhibition) at 10uM” value was determined as 11.3%. For the compound `CC1(C)CSC(=S)N1S(=O)(=O)c1ccccc1`, the “hERG current change (%, negative = inhibition) at 10uM” value is reported as -19%. With `Cc1ccc(CS(=O)(=O)c2ncc(Cl)c(C(=O)Nc3nnc(C(C)C)s3)n2)cc1` the figure was 9.25%. With `COc1ccc(C(=O)NCC(=O)N2CCN(c3ncccn3)CC2)cc1OC` the figure was 15%.

On to `O=C(O)C(=O)O.OC(COCc1ccc(Cl)cc1)CN1CC=C(c2ccccc2)CC1` (centres unmarked), for which the “hERG current change (%, negative = inhibition) at 10uM” value is recorded as -77.2%. As for `Cc1[nH]n(-c2ccc(Cl)cc2)c(=O)c1C(=O)c1ccccc1`, the figure is 28.6%; as for `C[C@H](NC(=O)c1nc[nH]c1C(=O)N[C@H](C)c1ccccc1)C(=O)OCc1ccccc1`, -1.78%. For the compound `O=C(CCNC(=O)c1ccc([N+](=O)[O-])cc1)Nc1ccc(N2CCOCC2)cc1N1CCOCC1`, the “hERG current change (%, negative = inhibition) at 10uM” value is -4.63%. As for `COc1ccc(S(=O)(=O)N(C)C)cc1NC(=O)CCNC(=O)c1ccccc1OC`, the figure is 15.6%. On to `CCC(C)NC(=O)Cc1cn(C)c2ccccc12` (centres unmarked), for which the “hERG current change (%, negative = inhibition) at 10uM” value is given as -5.23%. In the case of `CC[C@@H](C)[C@@H](C(=O)N1CCN(C(=O)OC(C)(C)C)CC1)n1cc(CCC(=O)O)nn1`, the “hERG current change (%, negative = inhibition) at 10uM” value came to 21.6%. In the case of `Cc1cc(C(=O)NNC(=O)CCCCC(=O)NNC(=O)c2cc(C)[nH]n2)n[nH]1`, the “hERG current change (%, negative = inhibition) at 10uM” value was -10.8%.

Regarding `CCC(Cc1ccccc1)NC(=O)CN(C)S(=O)(=O)c1ccc2c(c1)c(=O)n(C)c(=O)n2C` (centres unmarked), the “hERG current change (%, negative = inhibition) at 10uM” value is given as -23.5%. Turning to `COc1ccc(C(=O)NCC(=O)OCC(=O)N(C)c2ccccc2)cc1`, the “hERG current change (%, negative = inhibition) at 10uM” value is reported as 4.72%. With `O=c1c2ccccc2[nH]c(=S)n1CC1CCCO1` (centres unmarked) the figure was 10.4%; with `Cc1ccc(NC(=O)COC(=O)CN2C(=O)C3CCCCC3C2=O)cc1C` (centres unmarked), 2.1%; with `Cc1cc(C)n(-c2ccc(C(=O)Nc3cccnc3)cc2)n1`, 1.32%. With `O=C(COC(=O)c1ccncc1)NC(=O)C1CCCCC1` the figure was 0.14%; with `COc1ccccc1NC(=O)c1ccc(NC(=O)CSc2nncn2C)cc1`, -4.38%; with `Cc1nnc(NC(=O)C2c3ccccc3Oc3ccccc32)s1`, 5.04%. With `O=C(NCc1ccc(F)cc1)C1CC(=O)N(C2CCCCCCC2)C1` (centres unmarked) the figure was 29.8%; with `CCOC(=O)N1CCN(C(=O)CN(Cc2ccccc2)S(=O)(=O)c2ccc(OC)c(Cl)c2)CC1`, -13.4%; with `Fc1ccc2nc(-c3ccccc3)nc(SCc3nnc(-c4ccccc4)o3)c2c1`, -5.22%. In the case of `CCOC(=O)C(C)Oc1cccc2c(=O)n(CC(=O)NCc3ccc4c(c3)OCO4)ccc12` (centres unmarked), the “hERG current change (%, negative = inhibition) at 10uM” value is 11.7%. As to `O=C(Cn1cccc1C(=O)c1ccccc1)NCCC1=CCCCC1`, the “hERG current change (%, negative = inhibition) at 10uM” value is given as -19.5%. As for `CCOc1ccc(NC(=O)CCN2CCN(c3ccccc3OC)CC2)cc1`, the figure is -33.8%; as for `COC(=O)C1(C)NC(c2ccc(F)cc2)C2C(=O)N(c3ccccc3)C(=O)C21` (centres unmarked), 14.8%; as for `Cc1ccccc1C(=O)N1CCN(c2ccc([N+](=O)[O-])c(NCc3cccnc3)c2)CC1`, -27%. Consider `Cc1ccc(C(=O)NCC(=O)NCCCc2ccccc2)cc1`, for which the “hERG current change (%, negative = inhibition) at 10uM” value came to 12.3%. With `Cl.c1coc(CN2CCN(C(c3cccs3)c3nnnn3C3CCCC3)CC2)c1` (centres unmarked) the figure was -19.5%; with `COc1ccccc1N(C)S(=O)(=O)c1ccc(C(=O)NCC(C)C)cc1`, -17.6%; with `O=c1c2ccccc2nc(SCc2cccc(F)c2)n1C1CCCC1`, -5.51%. Turning to `CCOC(=O)c1c(NC(=O)COC(=O)CCOc2ccccc2C)sc(C(=O)NC)c1C`, the “hERG current change (%, negative = inhibition) at 10uM” value is listed as 20.1%. Consider `COc1ccc(C2=C/C(=C\c3ccc(OC(C)=O)cc3)C(=O)O2)cc1`, for which the “hERG current change (%, negative = inhibition) at 10uM” value is given as 11.9%. Take `COc1ccc(N2CCN(C(=O)COCC(=O)O)CC2)cc1`: the “hERG current change (%, negative = inhibition) at 10uM” value is listed as 26.1%. For the compound `COC(=O)c1ccc(NC(=O)CSc2nc(=O)n3cccc(C)c3n2)cc1`, the “hERG current change (%, negative = inhibition) at 10uM” value is -10.2%. Turning to `Cc1cccnc1NC(=O)C(c1ccccc1)c1ccccc1`, the “hERG current change (%, negative = inhibition) at 10uM” value worked out at 14.2%. On to `Cc1nc(-c2ccc(S(=O)(=O)Nc3cccc(S(N)(=O)=O)c3)s2)cs1`, for which the “hERG current change (%, negative = inhibition) at 10uM” value is listed as 4.83%. Regarding `Cc1cccc(OCc2n[nH]c(=S)o2)c1`, the “hERG current change (%, negative = inhibition) at 10uM” value came to 23.5%. As for `O=C(Nc1cccc(O)c1)c1cc(S(=O)(=O)N2CCCC2)ccc1Cl`, the figure is -4.47%. With `O=C(CN1C(=O)c2ccccc2C1=O)N1CCN(C(=O)c2ccco2)CC1` the figure was -7.2%; with `CCNC(=O)CN1C(=O)NC2(CCCCCC2)C1=O`, 14.3%. Consider `COc1cc(C(=O)NCC(=O)N/N=C/c2ccco2)cc(OC)c1OC`, for which the “hERG current change (%, negative = inhibition) at 10uM” value is listed as 15.4%.

For the compound `CCCCNc1oc(-c2ccc(OC)cc2)nc1S(=O)(=O)c1ccccc1`, the “hERG current change (%, negative = inhibition) at 10uM” value is recorded as 3%. As to `Cc1cccc(/C=N/NC(=O)c2ccccc2OCc2cccc(Br)c2)n1`, the “hERG current change (%, negative = inhibition) at 10uM” value is reported as -35.3%. Regarding `Cc1cc(C(=O)CSc2nc3ccccc3o2)c(C)n1C1CC1`, the “hERG current change (%, negative = inhibition) at 10uM” value stood at 15.2%. As for `COCCn1c(C)cc(C2=NNC(=Nc3ccc(OC)cc3)SC2)c1C`, the “hERG current change (%, negative = inhibition) at 10uM” value stood at 1.3%.

Take `O=C(O)C(C(=O)O)=C1C2CC3CC(C2)CC1C3`: the “hERG current change (%, negative = inhibition) at 10uM” value turned out to be 21.6%. Regarding `CCc1ccc(/C=N/NC(=O)c2cc(C3CC3)nc3ccc(Br)cc23)s1`, the “hERG current change (%, negative = inhibition) at 10uM” value stood at 3.74%. Regarding `O=C(NC1CCCC1)C1C2C=CC3(CN(Cc4cccs4)C(=O)C13)O2` (centres unmarked), the “hERG current change (%, negative = inhibition) at 10uM” value was found to be 8.93%. With `OCC[C@@H]1C[C@@H](O)[C@H](O)[C@]2(CCCc3ccccc3O2)O1` the figure was 2.34%; with `O=C(/C(=C/O)N=Nc1ccccc1)c1cccs1`, 19.2%. As for `COC(=O)N/N=C/c1ccc(-c2cc(Cl)cc(Cl)c2)o1`, the figure is -2.4%. As for `CCOc1cc(N2CCOCC2)c(OCC)cc1NC(=O)c1[nH]c(C)c(C(C)=O)c1C`, the figure is 13.4%; as for `C=CCn1c(COc2ccc(CC)cc2)nnc1SCC(=O)N(C)C1CCS(=O)(=O)C1` (centres unmarked), -16.3%; as for `Cn1c(=O)[nH]c2c(nc(-c3ccc(Cl)cc3)n2C)c1=O`, 20.3%.
